# According to the supplement of paper PMC7826260:
# The list shows a part of the results. Each Rep nickase domain was tested in vitro on the same pool of single strands (3 µM enzyme, 1 h, 37 °C); shown is the middle of each 90-letter strand. The score is log2 (uncut reads / reads without enzyme); uncut sequences lie near 0, cut ones below; no hit call is given. Because reads are shares of a total, they shift together; uncut strands gain when others are lost, and binding without cutting may add a little.
# What was measured:
# Assay in all cases: uncleaved DNA left, log2 of reads against the no-enzyme library (log2 ratio); higher = less cleavage (more negative = more Rep cleavage of the k-mer); sequences stand for … in CTCGTCCG…ACCGGAGA
# [1] = system: T1, Rep nickase domain of Muscovy duck circovirus
# T1 sequence (protein, residues 1-111, tag omitted): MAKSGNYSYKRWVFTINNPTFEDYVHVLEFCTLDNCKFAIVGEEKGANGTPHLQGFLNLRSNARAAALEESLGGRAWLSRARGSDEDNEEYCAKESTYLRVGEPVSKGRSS
# Protocol: (§1)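 A pool of 90-nt single-stranded DNAs with seven random bases just before the constant AC of the nick site (name = the seven bases) was cut by 3 µM recombinant His6-SUMO-tagged Rep nickase domain (300 nM DNA, 50 mM HEPES pH 8.0, 50 mM NaCl, 1 mM MnCl2, 1 h, 37 °C, three replicates). Uncut DNA was amplified and sequenced.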
# [2] = system: T2, Rep nickase domain of banana bunchy top virus
# T2 sequence (protein, residues 1-94, tag omitted): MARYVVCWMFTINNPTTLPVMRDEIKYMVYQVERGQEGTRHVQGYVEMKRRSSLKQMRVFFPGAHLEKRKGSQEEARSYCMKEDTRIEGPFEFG
# Protocol: as §1
# [3] = system: T3, Rep nickase domain of cabbage leaf curl virus
# T3 sequence (protein, residues 1-116, tag omitted): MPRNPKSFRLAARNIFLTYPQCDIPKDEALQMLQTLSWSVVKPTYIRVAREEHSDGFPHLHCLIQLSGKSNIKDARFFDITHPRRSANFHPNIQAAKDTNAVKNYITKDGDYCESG
# Protocol: as §1
# [4] = system: T4, Rep nickase domain of chickpea chlorotic dwarf virus
# T4 sequence (protein, residues 1-124, tag omitted): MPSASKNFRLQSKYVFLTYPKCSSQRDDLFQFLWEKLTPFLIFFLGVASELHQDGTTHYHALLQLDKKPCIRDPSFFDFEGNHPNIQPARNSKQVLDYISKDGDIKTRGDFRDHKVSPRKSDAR
# Protocol: as §1
# [5] = system: T5, Rep nickase domain of faba bean necrotic yellows virus
# T5 sequence (protein, residues 1-98, tag omitted): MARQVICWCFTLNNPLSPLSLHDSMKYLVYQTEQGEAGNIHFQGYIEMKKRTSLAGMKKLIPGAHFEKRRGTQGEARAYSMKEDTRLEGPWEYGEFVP
# Protocol: as §1
# [6] = system: T6, Rep nickase domain of maize striate mosaic virus
# T6 sequence (protein, residues 1-117, tag omitted): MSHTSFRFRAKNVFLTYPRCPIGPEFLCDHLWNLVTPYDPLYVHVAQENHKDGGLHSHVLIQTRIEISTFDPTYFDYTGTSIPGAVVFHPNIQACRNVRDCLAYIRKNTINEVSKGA
# Protocol: as §1
# [7] = system: T7, Rep nickase domain of porcine circovirus 2
# T7 sequence (protein, residues 2-116, tag omitted): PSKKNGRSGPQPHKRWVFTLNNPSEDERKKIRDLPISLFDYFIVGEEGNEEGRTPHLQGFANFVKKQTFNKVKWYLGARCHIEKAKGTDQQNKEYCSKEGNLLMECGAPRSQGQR
# Protocol: as §1
# [8] = system: T8, Rep nickase domain of tomato golden mosaic virus
# T8 sequence (protein, residues 1-124, tag omitted): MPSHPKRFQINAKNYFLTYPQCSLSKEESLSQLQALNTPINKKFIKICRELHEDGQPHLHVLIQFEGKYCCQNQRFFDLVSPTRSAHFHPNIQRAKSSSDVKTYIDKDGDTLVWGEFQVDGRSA
# Protocol: as §1
# [9] = system: T9, Rep nickase domain of tomato yellow leaf curl virus
# T9 sequence (protein, residues 1-136, tag omitted): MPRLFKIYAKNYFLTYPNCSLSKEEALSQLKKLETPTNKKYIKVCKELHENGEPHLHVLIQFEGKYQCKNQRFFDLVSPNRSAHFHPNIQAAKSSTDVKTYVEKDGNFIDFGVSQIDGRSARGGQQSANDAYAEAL
# Protocol: as §1
# [10] = system: T10, Rep nickase domain of wheat dwarf virus
# T10 sequence (protein, residues 1-137, tag omitted): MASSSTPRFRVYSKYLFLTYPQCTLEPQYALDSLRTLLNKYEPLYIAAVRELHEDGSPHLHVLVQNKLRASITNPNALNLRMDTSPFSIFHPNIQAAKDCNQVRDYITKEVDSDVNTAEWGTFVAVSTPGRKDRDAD
# Protocol: as §1
Sequence,uncleaved DNA left (log2) [1],uncleaved DNA left (log2) [2],uncleaved DNA left (log2) [3],uncleaved DNA left (log2) [4],uncleaved DNA left (log2) [5],uncleaved DNA left (log2) [6],uncleaved DNA left (log2) [7],uncleaved DNA left (log2) [8],uncleaved DNA left (log2) [9],uncleaved DNA left (log2) [10]
TCGGGGT,-0.0698,-0.0995,0.326,1.16,-0.101,1.63,0.13,-0.0149,-0.166,-0.0768
CGTAAGT,0.0619,0.109,0.0226,-0.215,0.103,-0.661,-0.108,0.0146,0.125,-0.0332
CACCCCT,-0.21,-0.195,-1.36,-2.93,-0.0617,-1.14,-1.12,-0.339,-0.145,-0.329
CTGCCTC,-0.195,-0.167,0.0777,0.307,-0.0291,0.781,-0.102,-0.106,-0.0945,-0.0148
AGAAGGT,-0.0236,0.0865,0.271,0.923,-0.0319,1.28,0.0377,0.0353,-0.107,0.0233
TTAGTAC,-0.739,-0.0387,0.216,-0.68,0.0801,-0.17,-1,0.0723,0.0801,0.0365
GTGCACT,-0.0223,0.0834,0.36,0.951,-0.00993,1.7,0.121,0.0101,0.0719,0.119
CTGTGAA,0.0911,-0.139,-0.104,-0.0372,0.0162,-0.483,-0.0178,-0.00152,0.112,-0.111
TACGTCA,0.0572,0.0134,-0.0269,-1.87,-0.0567,-0.257,-0.205,0.0213,0.0733,-0.118
CGAGCTC,-0.000379,0.0454,0.0791,0.384,-0.0412,0.278,-0.0261,-0.135,-0.0374,-0.0318
ACGACGG,0.0427,0.00607,0.0127,0.457,-0.127,1.29,0.0654,0.0347,-0.0885,-0.054
ATATGTC,-0.354,-0.169,-0.207,-0.317,0.0194,-1.04,-0.0592,-0.192,-0.0642,-0.0765
CGTACCA,0.0252,0.191,0.0666,-0.815,0.111,-0.0824,-0.385,-0.0232,0.0929,0.071
GGAAGGA,0.0825,0.0933,0.734,1.06,0.0488,1.76,0.249,0.0891,0.0744,0.17
ACGGCGA,0.126,0.0601,-0.56,0.208,-0.00375,-0.415,0.462,0.0915,0.132,-0.00522
ACCACTA,-0.0669,0.0277,-0.245,-1.45,-0.18,-0.866,-0.206,-0.0326,-0.0629,-0.104

Sequence,uncleaved DNA left (log2) [1],uncleaved DNA left (log2) [2],uncleaved DNA left (log2) [3],uncleaved DNA left (log2) [4],uncleaved DNA left (log2) [5],uncleaved DNA left (log2) [6],uncleaved DNA left (log2) [7],uncleaved DNA left (log2) [8],uncleaved DNA left (log2) [9],uncleaved DNA left (log2) [10]
TAAATAT,-0.0437,-0.0893,-4.02,-3.27,-0.127,-2.52,-0.988,-3.18,-0.0281,-3.6
TGGTGAC,0.00733,0.108,0.843,1.81,0.118,2.11,0.23,0.00329,0.0203,0.19
ACAAGTC,0.0903,0.0524,-0.705,-0.529,-0.0163,-0.894,0.168,0.0309,-0.0118,-0.0925
CCTTGTT,-2.82,-0.709,-0.889,-2.64,-0.0753,-1.03,-2.94,-0.0496,-0.223,-0.548
CTAGCGA,0.0106,0.0437,-0.766,-0.459,-0.00793,-0.825,0.042,-0.0489,-0.00793,-0.129
CGTCGGA,0.0177,0.0486,0.0789,0.356,-0.00322,0.124,0.0764,-0.0381,0.0501,-0.167
ATACTTT,-0.23,-0.237,-0.442,-2.98,-0.0528,-0.786,-0.773,-0.166,-0.153,-0.184
TCGCAGC,0.0496,-0.0571,-0.0361,-0.39,0.0499,-1.01,0.0794,-0.0459,0.0334,0.124
AAGCGCT,-0.0161,-0.108,-0.208,-0.484,-0.236,-0.134,-2.06,-0.0824,-0.212,-0.0628
CGCATGT,0.0781,0.0715,-0.108,-0.0133,0.107,-0.229,0.0382,-0.0486,0.043,0.0219
AATTTAG,0.0679,-0.0244,-0.865,-0.506,0.0428,-1.38,0.195,0.0105,0.0184,-0.029
TTCCAGA,0.184,0.112,0.687,0.683,0.12,1.17,0.268,0.0578,-0.00568,0.242
TATATCC,0.0686,-0.0237,0.144,-0.192,-0.126,-0.233,0.052,-0.0423,0.0772,0.101
GGCGGGA,0.0999,0.143,0.727,1.31,0.111,1.79,0.37,0.104,0.166,0.229
GAGCTAC,-0.104,-0.0268,0.0482,0.181,-0.0781,0.978,-0.0536,-0.0671,-0.0579,0.0491
